Drawing on the GPR68 mutational scans of Howard et al. (2025), this text covers cAMP reporter score and surface expression score for 46 variants.

Sequences and labels used below:
B1: GPR68, Q15743 (parent)
chain: MGNITADNSSMSCTIDHTIHQTLAPVVYVTVLVVGFPANCLSLYFGYLQIKARNELGVYLCNLTVADLFYICSLPFWLQYVLQHDNWSHGDLSCQVCGILLYENIYISVGFLCCISVDRYLAVAHPFRFHQFRTLKAAVGVSVVIWAKELLTSIYFLMHEEVIEDENQHRVCFEHYPIQAWQRAINYYRFLVGFLFPICLLLASYQGILRAVRRSHGTQKSRKDQIQRLVLSTVVIFLACFLPYHVLLLVRSVWEASCDFAKGVFNAYHFSLLLTSFNCVADPVLYCFVSETTHRDLARLRGACLAFLTCSRTGRAREAYPLGAPEASGKSGAQGEEPELLTKLHPAFQTPNSPGSGGFPTGRLA

Scores with a large standard error are left out. Two further conditions of the source, in which the scores hardly spread, are not listed. Read del as a deletion of the residues named and ins as an insertion between two positions. For part of these data: The concentration of ogerin is not given here.

The variants in data set [1] derive from B1. The experiment in a line: cAMP reporter score (Enrich2 score, wild type = 0); higher = more signal; HEK293T, FACS bins.
The variants in data set [2] derive from B1. Description: surface expression score (Enrich2 score, wild type = 0); higher = more signal; HEK293T, FACS bins.

Take S271W: the cAMP reporter score in data set [1] (pH 6) was -0.847; in data set [1] (pH 6, modulator: ogerin), -1.49; in data set [1] (pH 6.5, modulator: ogerin), -0.443. Also, in data set [2], the surface expression score was -0.805.
On to S108P, for which the cAMP reporter score in data set [1] (pH 6, modulator: ogerin) was -1.3.
On to L238N, for which, in data set [1] (pH 6.5, modulator: ogerin), the cAMP reporter score is -0.333.
Regarding L238R, the cAMP reporter score was -1.27 in data set [1] (pH 6, modulator: ogerin) and -0.859 in data set [1] (pH 6.5, modulator: ogerin). Also, the surface expression score in data set [2] was -3.14.
On to Q95_V96insG, for which, in data set [1] (pH 6.5, modulator: ogerin), the cAMP reporter score was -1.19. Further, the surface expression score in data set [2] was 0.59.
D67A: the cAMP reporter score in data set [1] (pH 6, modulator: ogerin) was -0.615; in data set [1] (pH 6.5, modulator: ogerin) it was -0.831. Besides, in data set [2], the surface expression score came to 1.16.
On to P346T, for which the cAMP reporter score is -0.38 in data set [1] (pH 6) and -0.426 in data set [1] (pH 6.5, modulator: ogerin).
On to T313_R315del, for which the cAMP reporter score in data set [1] (pH 6) is -0.762.
As for Y155A, the cAMP reporter score was 1.09 in data set [1] (pH 6); 0.796 in data set [1] (pH 6, modulator: ogerin); -0.425 in data set [1] (pH 6.5, modulator: ogerin). For the same variant, the surface expression score in data set [2] worked out at 0.233.
In the case of Y155V, the cAMP reporter score in data set [1] (pH 6) was 0.884; in data set [1] (pH 6, modulator: ogerin), 0.92; in data set [1] (pH 6.5, modulator: ogerin) it was 0.821.
Taken in the same sequence, the figures for K220E were 0.25, -0.904 and -3.27.
For the variant V65N, the cAMP reporter score in data set [1] (pH 6, modulator: ogerin) was -1.26; in data set [1] (pH 6.5, modulator: ogerin) it was -0.639. For the same variant, the surface expression score in data set [2] was -2.63.
In the case of E161T, in data set [1] (pH 6), the cAMP reporter score was found to be 3.46. In addition, in data set [2], the surface expression score is -0.057.
As to E161W, the cAMP reporter score in data set [1] (pH 6, modulator: ogerin) was -1.19; in data set [1] (pH 6.5, modulator: ogerin), -0.824. The surface expression score in data set [2] amounted to 0.086.
E161V: the cAMP reporter score in data set [1] (pH 6) was determined as 2.45.
In the case of P126W, the cAMP reporter score in data set [1] (pH 6) is -0.781; in data set [1] (pH 6, modulator: ogerin), -0.606; in data set [1] (pH 6.5, modulator: ogerin), -1.13. In data set [2], the surface expression score was -2.69.
Take P126I: the cAMP reporter score was -0.731 in data set [1] (pH 6, modulator: ogerin) and -0.958 in data set [1] (pH 6.5, modulator: ogerin). Moreover, the surface expression score in data set [2] is -3.66.
Turning to P126G, the surface expression score in data set [2] was -0.29.
As to P126F, the cAMP reporter score is 1.9 in data set [1] (pH 6); -0.326 in data set [1] (pH 6, modulator: ogerin); -0.446 in data set [1] (pH 6.5, modulator: ogerin).
As to H169_V171del, the cAMP reporter score was -0.826 in data set [1] (pH 6); -1.62 in data set [1] (pH 6, modulator: ogerin); -0.572 in data set [1] (pH 6.5, modulator: ogerin).
As for S116K, the cAMP reporter score in data set [1] (pH 6) is -1.45; in data set [1] (pH 6, modulator: ogerin) it was -0.679. In addition, in data set [2], the surface expression score is -0.393.
In the case of R183Y, the cAMP reporter score was -0.72 in data set [1] (pH 6, modulator: ogerin) and -2.67 in data set [1] (pH 6.5, modulator: ogerin).
Take R183H: the cAMP reporter score is -1.08 in data set [1] (pH 6); -0.681 in data set [1] (pH 6, modulator: ogerin); -0.214 in data set [1] (pH 6.5, modulator: ogerin). In data set [2], the surface expression score is -0.138.
For R213_S215del, in data set [1] (pH 6.5, modulator: ogerin), the cAMP reporter score is -1.46. The surface expression score in data set [2] is -0.433.
V144P: the cAMP reporter score in data set [1] (pH 6) was 0.298; in data set [1] (pH 6, modulator: ogerin), -2.54; in data set [1] (pH 6.5, modulator: ogerin) it was -1.32. The surface expression score in data set [2] was -2.49.
As to V144R, the cAMP reporter score is -2.42 in data set [1] (pH 6, modulator: ogerin) and -1.9 in data set [1] (pH 6.5, modulator: ogerin). Also, the surface expression score in data set [2] was -2.48.
In the case of V144N, the cAMP reporter score in data set [1] (pH 6, modulator: ogerin) is -2.49; in data set [1] (pH 6.5, modulator: ogerin), -3.9.
As for G35_F36insG, the cAMP reporter score was -1.19 in data set [1] (pH 6, modulator: ogerin) and -1.11 in data set [1] (pH 6.5, modulator: ogerin). The surface expression score in data set [2] was -1.58.
With R119_Y120insGSG, in data set [1] (pH 6, modulator: ogerin), the cAMP reporter score was -4.2. Moreover, the surface expression score in data set [2] is -1.97.
As to K136Q, the cAMP reporter score in data set [1] (pH 6) is 1.68; in data set [1] (pH 6, modulator: ogerin), -0.266; in data set [1] (pH 6.5, modulator: ogerin), 0.222.
As to H125del, the cAMP reporter score in data set [1] (pH 6.5, modulator: ogerin) is -0.172. For the same variant, the surface expression score in data set [2] was -2.8.
Y188K: the cAMP reporter score in data set [1] (pH 6) is 1.96; in data set [1] (pH 6, modulator: ogerin) it was 0.263; in data set [1] (pH 6.5, modulator: ogerin), -0.434.
As for Y188D, the cAMP reporter score in data set [1] (pH 6) is -0.474; in data set [1] (pH 6.5, modulator: ogerin), -0.049. In data set [2], the surface expression score was -2.04.
Turning to H130_Q131insGSG, the cAMP reporter score in data set [1] (pH 6) was -0.248; in data set [1] (pH 6, modulator: ogerin), -1.46. The surface expression score in data set [2] was -2.96.
Regarding T134del, the cAMP reporter score in data set [1] (pH 6, modulator: ogerin) was -0.754; in data set [1] (pH 6.5, modulator: ogerin) it was -1.4. Also, the surface expression score in data set [2] was -3.54.
For L274T, the surface expression score in data set [2] is -3.3.
In the case of L274G, the cAMP reporter score in data set [1] (pH 6, modulator: ogerin) is -2.27; in data set [1] (pH 6.5, modulator: ogerin) it was -1.98. For the same variant, the surface expression score in data set [2] is -3.06.
Regarding Y187_R189del, the cAMP reporter score in data set [1] (pH 6.5, modulator: ogerin) is -1.64.
As to E160V, in data set [1] (pH 6, modulator: ogerin), the cAMP reporter score is -2.32.
For the variant E160I, the cAMP reporter score in data set [1] (pH 6) was -0.2; in data set [1] (pH 6, modulator: ogerin), -0.702; in data set [1] (pH 6.5, modulator: ogerin) it was -0.4. For the same variant, in data set [2], the surface expression score was found to be 0.526.
Taken in the same sequence, the figures for E160M were 3.92, 1.27, 4.51 and 1.41.
Turning to E160P, the cAMP reporter score in data set [1] (pH 6) turned out to be 2.41; in data set [1] (pH 6, modulator: ogerin), 0.459. For the same variant, the surface expression score in data set [2] was -0.199.
With E160N, the cAMP reporter score in data set [1] (pH 6) was determined as 1.76; in data set [1] (pH 6, modulator: ogerin), 0.986; in data set [1] (pH 6.5, modulator: ogerin), 2.95.
In the case of A184G, the cAMP reporter score was determined as 1.77 in data set [1] (pH 6) and 0.208 in data set [1] (pH 6, modulator: ogerin). The surface expression score in data set [2] came out at 1.13.
Regarding F196E, the cAMP reporter score is -0.724 in data set [1] (pH 6, modulator: ogerin) and -0.437 in data set [1] (pH 6.5, modulator: ogerin). The surface expression score in data set [2] was -1.16.
For F196Q, the cAMP reporter score in data set [1] (pH 6) is -0.599; in data set [1] (pH 6.5, modulator: ogerin), -0.427.
